# Data published in PubChem BioAssay (NCATS).
# The inconclusive results got no clear call from the source; some entries with a clear call stand among them for comparison. For some of these results: Potencies beside an inconclusive call are fits to weak or partial responses and may not hold up. The source made the active and inactive calls. The call rests on the fitted dose curve; in most records, active means well fitted curve in the direction sought with a large enough effect; inconclusive means small, poorly fitted or top-dose-only effect, or another doubt; inactive means no such curve, though single readings can be large; an effect the other way counts as inactive or inconclusive.
# Assays:
# [1] = qHTS to identify inhibitors of the type 1 interferon - major histocompatibility complex class I in skeletal muscle: primary screen against the NCATS Pharmaceutical Collection (AID 1347407); conditions: human skeletal muscle cells, IFN-b-induced MHC-I HiBiT luminescence, 24 h; activity change, negative = inhibition: at 45.9 µM (top of the series);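 further: luminescence of HiBiT knocked into endogenous HLA-B as interferon-induced MHC class I level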
# In short: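 Cells were seeded with 4 ng/ml IFN-beta, incubated 1 h, then dosed with compounds over eight 1:5 steps up to 46 uM final. After 24 h at 37 C, HiBiT lytic reagent was added and luminescence read after 10 min lysis in the dark.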
# [2] = biological target: Protein phosphatase 1D (Homo sapiens) (UniProt O15297); assay: RapidFire Mass Spectrometry qHTS Assay for Modulators of WT P53-Induced Phosphatase 1 (WIP1) (AID 1347424)
# In short: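 RapidFire MS readout of dephosphorylated VEPPL-S-QETFS product, with 1 uM isotope-labelled peptide standard. Reaction: 10 nM WIP1, 2 uM phosphopeptide substrate, 5 min, room temperature, after 1 h compound preincubation; stopped with 0.5% formic acid.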
# [3] = Primary qHTS for inhibitors of La Crosse Virus (LACV) - induced cell death in SH-SY5Y cells (AID 1508616)
# In short: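 Rescue of virus-induced death was read as ATPLite luminescence after 6 days at 37C, scaled between DMSO wells with LACV and without virus. Cells were SH-SY5Y, 6000/well, infected at 0.01 MOI after compound addition.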
# [4] = qHTS to identify inhibitors of the type 1 interferon - major histocompatibility complex class I in skeletal muscle: primary screen against the NCATS Mechanism Interrogation Plate v5.0 (MIPE) Libary (AID 1347411); conditions: iHSKM cells + IFN-b, HiBiT-tagged MHC-I luminescence, 24 h; activity change, negative = inhibition: at 45.8 µM (top of the series); further: nearly all actives have a fitted effect of over 65% in size
# In short: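 Luminescence from CRISPR HiBit-tagged endogenous HLA-B in human myoblasts reported MHC class I level after 24 h of IFN-beta (4 ng/ml) plus compound. Compounds ran as 11-point 1:3 series, top 46 uM final.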
# [5] = biological target: Protein phosphatase 1D (Homo sapiens) (UniProt O15297); assay: Rhodamine-PBP qHTS Assay for Modulators of WT P53-Induced Phosphatase 1 (WIP1) (AID 1347425)
# In short: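 Read-out: Rhodamine-PBP fluorescence (ex 525/em 598 nm) for released Pi, read each minute for 11 min after adding 10 uM VEPPL-pS-QETFS; signal taken as f1 minus pre-substrate f0. Enzyme 5 nM WIP1 with 1 hr room-temperature compound preincubation.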
# [6] = Validation qHTS assay for inhibitors of Activation Induced Cytidine Deaminase (AID): UDG Counterscreen signal (AID 1347427); conditions: biochemical UDG counterscreen, fluorescence signal
# In short: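 Fluorescence at 560 nm excitation, 665 nm emission reports UDG signal after 250 mM NaOH (2x) addition and 30 min. Enzymes (AID 1 uM, UDG 2 U/mL, at 4/3x) preincubated 10 min with compound, then 4 h with 4x 250 nM DJC20/DJC23 substrate at room temperature.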
# [7] = biological target: Single-stranded DNA cytosine deaminase (Homo sapiens) (UniProt Q9GZX7); assay: Validation qHTS assay for inhibitors of Activation Induced Cytidine Deaminase (AID): AID signal (AID 1347429)
# In short: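 Compounds (final up to 114 uM) preincubated with AID plus UDG; 250 nM DJC20/DJC23 substrate mix (4x stock) added, 4 hr at room temperature, then NaOH, 30 min. Read 1 fluorescence at 540 nm excitation, 590 nm emission.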
# Potency means the concentration at half of the fitted maximal effect; tags describe the fitted curve by direction and shape.
# Sequence of UniProt O15297 (O15297 whole entry, looked up): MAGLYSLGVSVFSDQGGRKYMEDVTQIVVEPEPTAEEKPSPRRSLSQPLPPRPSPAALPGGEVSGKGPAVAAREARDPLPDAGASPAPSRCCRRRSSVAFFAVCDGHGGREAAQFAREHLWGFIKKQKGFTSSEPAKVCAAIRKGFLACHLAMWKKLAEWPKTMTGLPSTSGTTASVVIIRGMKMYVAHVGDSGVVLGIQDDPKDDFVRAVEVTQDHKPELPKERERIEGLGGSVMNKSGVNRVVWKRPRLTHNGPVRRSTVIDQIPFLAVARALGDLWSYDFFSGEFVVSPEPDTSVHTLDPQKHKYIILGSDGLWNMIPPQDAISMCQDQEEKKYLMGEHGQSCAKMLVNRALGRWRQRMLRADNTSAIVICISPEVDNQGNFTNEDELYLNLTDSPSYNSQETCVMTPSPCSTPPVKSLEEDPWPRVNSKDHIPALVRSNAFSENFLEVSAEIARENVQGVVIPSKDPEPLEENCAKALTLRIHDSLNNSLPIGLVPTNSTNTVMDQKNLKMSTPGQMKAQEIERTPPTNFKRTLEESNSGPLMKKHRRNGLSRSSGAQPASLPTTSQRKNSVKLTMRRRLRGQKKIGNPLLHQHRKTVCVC
# Sequence of UniProt Q9GZX7 (Q9GZX7 whole entry, looked up): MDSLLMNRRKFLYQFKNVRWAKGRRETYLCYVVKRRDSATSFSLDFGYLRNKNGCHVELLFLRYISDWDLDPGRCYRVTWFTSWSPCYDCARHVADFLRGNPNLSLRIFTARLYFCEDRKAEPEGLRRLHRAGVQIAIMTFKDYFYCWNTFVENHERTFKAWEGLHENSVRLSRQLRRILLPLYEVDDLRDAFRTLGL
structure (smiles),measurement,setting,value
CC(C)(C)c1ccc(O)c(O)c1,Potency,[1],"inconclusive: 30.3 µM [inhibitor, single point]"
same,Potency,[2],"inconclusive: 100 µM [inhibitor, single point]"
same,Potency,[3],"inconclusive: 2.82 µM [inhibitor, single point]"
COC(=O)c1nc(Cl)c(Cl)nc1N,Potency,[1],active: 10.5 µM
same,Potency,[3],"inconclusive: 0.891 µM [inhibitor, partial curve, poor fit]"
Cc1[nH]cnc1CN1CCc2c(c3ccccc3n2C)C1=O,Potency,[1],"inconclusive: 29.7 µM [inhibitor, single point]"
COc1cccc2c1C(=O)c1c(O)c3c(c(O)c1C2=O)C[C@@](O)(C(=O)CO)C[C@@H]3O[C@H]1C[C@H](N)[C@H](O[C@@H]2CCCCO2)[C@H](C)O1,Potency,[1],inactive
Cc1ccc(C)c(OCCCC(C)(C)C(=O)O)c1,Potency,[1],inactive
same,Potency,[4],inactive
O[C@@H](COc1cccc2ncccc12)CN1CCN(C2c3ccccc3[C@@H]3[C@H](c4ccccc42)C3(F)F)CC1 (stereo partly specified),Potency,[1],"inconclusive: 33.3 µM [inhibitor, single point]"
same,Potency,[4],"inconclusive: 58.7 µM [inhibitor, single point]"
O=C1CCc2ccc(OCCCCN3CCN(c4cccc(Cl)c4Cl)CC3)cc2N1,Potency,[4],"inconclusive: 18.6 µM [inhibitor, single point]"
CC(=O)Oc1ccccc1C(=O)Nc1ncc([N+](=O)[O-])s1,Potency,[5],"inconclusive: 12.6 µM [inhibitor, partial curve, poor fit]"
C=C(c1ccc(C(=O)O)cc1)c1cc2c(cc1C)C(C)(C)CCC2(C)C,Potency,[5],"inconclusive: 15.8 µM [inhibitor, partial curve, poor fit]"
NNc1nncc2ccccc12,Potency,[6],active: 39.8 µM
same,Potency,[7],"inconclusive: 39.8 µM [inhibitor, partial curve]"
